The chains are these.
B1: LINE1-full (parent)
chain: UACGUAGGUGGUUUUCCCCUGAUAGUGCUAAGGGGGCCUGGAAGUUUGGACUGGGCAGAGCUCAACACAGCGUGGCAAAGUGGCUGUGGCUAGACUGCCUCUCUGGAUUCCUCGUCACUCAGCAGGGCAUCUCUGAGAGAAAUGCC

The source gives no read counts; variants with many changes may rest on few reads.

This series covers variants of B1. The series is described as follows: self-cleavage, relative activity (ratio to wild type); higher = more cleavage; in vitro, sequencing; the parent is a self-cleaving ribozyme.
In the case of A31U A77G C84U A107G A129G A140G, the self-cleavage stood at 0.21. For U14C A69G A121U U130C the value was 0.6. For A24G C51U A57G A142C the value was 0.51; for U13C C71U G126A A136G, 0.99; for A31U A42G A138G C146U, 0.84. For G89U A92G U115C the value was 0.27; for G11A U62C U104A, 0.05. As for U14C A69U A107G, the self-cleavage is 0.05. For G33A U62C A64U U87A the value was 0.05; for U45G A65G U102C, 0.2. For U5C U20C U102C the value was 1.02; for G7A A30G U130A, 0.55; for U13C A31G A79G A92G A141G, 0.33. The value for U15A A94U A141G U143C was 0.27. U12C A43G U134A: the self-cleavage was 0.71.

Take A2G U46C U96C A107G: the self-cleavage was determined as 0. For G36A U96A U112C the value was 0.05; for U100A A136U A142G, 0.91; for U13C U23C U87C C101A, 0. The value for U39C U81C U130A was 0.42; that for U5C A57U U109C C113U was 0; that for U91C U96C U104C A140G was 0. The value for U5C U100C A140G was 0.97. On to A22G U47A A79G U115A, for which the self-cleavage was determined as 1.33.

On to C51A C84G A94G U100C, for which the self-cleavage was determined as 0.11. For U14A U26A U45C G86A U104A A129G U130C A138G the value was 0.06. The value for U12C U96A U102C A107G A142G was 0.15; that for A59G C61U A69G U73A U112C A142G was 0.26; that for U15A U23C A42G A67G U143A was 0.38. The value for U14C U39C G80A U130C was 1.98; that for U26C A43G A136U was 1.53.

With U15C A67G U85A U109C U130C, the self-cleavage came to 0.71. The value for C71U U73C A79G A94U U130C was 0.53.

In the case of U26C G83U C131U G137A, the self-cleavage came to 1.02. For U14C U46C U115C the value was 0.98; for U46A A136G C145U, 0.9; for U26C C38U U47A U104C A141G, 1.22.

In the case of U85C C98A A138G, the self-cleavage is 0.09. For U14C G36U U109A the value was 1.05; for U26A U132C A141G, 0.92; for U39A A59G A94G G114A, 0.18.

Turning to A2G A43G U73C G89A, the self-cleavage is 0.31.

For A43U U73C A77U A138U, the self-cleavage was 1.6. The value for G35A U47A A94G U100C was 0.2; that for A30G G35A C37G was 0.96; that for C17A A43G A117G was 0.57. In the case of U29C A30G U46A A136U, the self-cleavage stood at 2.8. On to U100C A107G A142G, for which the self-cleavage was 1.58. For A43G C84U U87C the value was 0.12; for G4A A22G A142G, 0.48; for U13C U29C A59U G74A U108A, 0.46. For A2U U26C U81G G105A the value was 1.28; for U5C U112A A124U U130C U143A, 1.58. For U12A U96A U100A A140G the value was 0; for C19U A65U A77U G89C C128U, 0.03; for A30G A57G U115C A138G, 0.71. Turning to A31G U73C U115A, the self-cleavage was found to be 2.3. For G32A A59G U85C U104C A140G the value was 0; for U12G A136G U143C, 1.62; for A2G U62C G86A U108C U132C, 0.08. The value for U26A A57G A77G U87A U102A A140G C146U was 1.15; that for A59U U62C U81C G82A A92U U96C was 0.

On to U14C A43G A57U, for which the self-cleavage came to 0.19. Take U39C A117U A121G: the self-cleavage was 2.3. The value for A6U A117G U119A A142G was 1.15. For A2G C19U A50G A67U U85C A140G the value was 0; for U14C A43G A65U, 0; for U5C U14C U47C G86A A140G, 0.34.

With G10A G86U U102A U104C U112C A141G, the self-cleavage came to 0.07.

Turning to A64G A78G U130C, the self-cleavage stood at 0.43.

For the variant U87A U102C C128U, the self-cleavage amounted to 0.03. Take U52A U87A A142G G144U: the self-cleavage was 0.2. For C19U A57G A77G the value was 1.22; for A22G A57U G89U A117G, 0; for A6G A79G U85G, 1.45.

On to G4A G89A U91C, for which the self-cleavage was determined as 0.07.

For U46C U47G C120A, the self-cleavage came out at 0. The value for U13G A77U U115A was 1.04; that for A67G U108C U132C G139U was 1.61; that for U5A U96C U108C was 0.

On to A6G U14C U62A U87A A92G A138G, for which the self-cleavage worked out at 0.

With A78U U87C U100A U134C, the self-cleavage was determined as 0.1. For U14A U100C A142G the value was 1.39; for A69G C76A A136G, 0.97; for U9C A65U C110A, 0.25.

As to A2G C18U A43G A59G U87C A121U A141G, the self-cleavage was determined as 0. For U13C C116U A124G the value was 0.48; for G33A A59U C120U, 0.89.

In the case of U52A U119C A140G, the self-cleavage came out at 1.82. For U26C U130C U134A the value was 1.42; for G60U G106A A124U U132A A141G, 0.04; for U45C U85A A94G, 0.31. For U12A A57U C84U U96C the value was 0.03; for G41U A59U U73C G74A A124G, 0.47. The value for U26C A50U U62C U119C was 0; that for U45A A107G U134C was 1.29.

With U12C A79G U100C, the self-cleavage was determined as 1.7. For U14C A67U C71A U112C, the self-cleavage stood at 0.06.

Take U13C U20C G86A U100A A121G: the self-cleavage stood at 0.12. The value for C3A G4U U15A was 0.52; that for A65G A94G U104C C128U A142U was 0.08. The value for U23C U96A U100C G106A U112C A121G was 0. For the variant U96C U102C A107G, the self-cleavage is 0. For U1A G10U A42G, the self-cleavage was 1.24. The value for U45C A69G A140G A141G was 0. For the variant U14C U130C C145G, the self-cleavage is 0.66. The value for U1C U81C U132C was 0.99; that for U29C U45C C99A A140G was 0.37. Turning to A59G G88A A124G C146A, the self-cleavage worked out at 0.03. The value for A2G A92G A129G was 0. The value for A57U U85A A94G U132G A140G was 0; that for A59G G75U U134C was 0.05; that for G34A A69U A129U was 0.06. The value for U14C C37G A57G A117C A129U U130C was 0.57. With A22G U46C C71U C99U A140U C146A, the self-cleavage worked out at 0.65. For U12G A24G U87A U100C A138U A142U the value was 0.16; for U47C A57G U130A, 0; for U1A A24G U143C, 1.02. Take U9A U52A A92C: the self-cleavage is 0.

A42G A78G U96A: the self-cleavage was determined as 0.03.

With U23G G34U U119C, the self-cleavage was 1.06. For C90G U119A U130C A142G the value was 0.03. In the case of A77G U91C A117U A121G U132C, the self-cleavage turned out to be 1.02.

Turning to U52A A59G A107G U108C, the self-cleavage turned out to be 0. A30U U39C U45C A78U A141G: the self-cleavage worked out at 0.59. The value for C19U U46C A117U was 0.84. In the case of U39A G53U U102C A107G, the self-cleavage worked out at 1.75. As for G11A U108C U115A, the self-cleavage is 2.18. The value for A2G A78U A117G was 1.46.

For G32A U47A A124U, the self-cleavage is 0.88. As for U12G U15C U26C G93A A129G, the self-cleavage is 0.11. A77G A79U U85C A142G: the self-cleavage came out at 0. For U12A U81C U109A A129G U132C the value was 1.84; for U14C G54U U87C, 0.16; for U29A U96A U134C, 0. For A65G C103A U134C A138G the value was 0.09; for U12C U13C A65G C98U, 0.51; for U9A U23A A107G U108A, 0.87. For A22G A50G C51U G58U A78G U91C the value was 0.03; for G55C A65G A138G, 0.03. In the case of U15C C17U U39A A43U U115A, the self-cleavage is 0.39. For U14G C18U A43G U45C U96A U115A the value was 0.08; for U12C C17A C37G C61U A79G, 0.15; for U52A A59G A124G U134A, 0. In the case of U14C U39A A59G A65U A94U A142U, the self-cleavage was found to be 0.08. Consider U1C U115C U134A, for which the self-cleavage is 0.84. Turning to U47C A67G U81A A141G, the self-cleavage is 0.

Turning to U13C C71U A79G G125A, the self-cleavage is 0.53.

As to U52C C71U U134C, the self-cleavage worked out at 0.79.

Regarding A107G U119C U132A, the self-cleavage worked out at 1.08. For U73A A78G U87C A140U the value was 0.03; for U47A A77G A78G A92U, 0.97.

For the variant U29C A94G C113A, the self-cleavage came to 0.67. For U14C G32A U62C U119C A136U the value was 0.09. On to U9C G25A A69G, for which the self-cleavage was found to be 0.77.

For the variant U13C A65G A124G U134A, the self-cleavage stood at 0.1.

For U15A A67G A77G U87A, the self-cleavage amounted to 0. For U14A U29C U85A A124G the value was 0.22; for U26G C101U U119A A124G, 1.37.

Consider U15A U81C U85C, for which the self-cleavage came out at 0.77.

Regarding C3U U52C C123U, the self-cleavage is 0.53.

As to G49U A50G U85C U132C, the self-cleavage turned out to be 0.1. For A42G U73A U132A the value was 1.59.

As for A2G U104C U109A, the self-cleavage turned out to be 1.02. The value for U47A A57G A67G was 0.36; that for A78G G88U U108C U130A was 0.07; that for A24C A64U G144A was 0.7.

These data come from the RNAGym collection of RNA variant scans (doi:10.7554/elife.90254).
